Measured values from PubChem BioAssay AID686979 (National Center for Advancing Translational Sciences (NCATS), 2013).
Values joined by “and” are separate entries in the source; they are usually repeats but may differ in a detail not shown here. Equal entries are not always repeated. The whole screen tested about 420,000 compounds, of which about 50,000 (12%) were called active. Inconclusive results, whose numbers are uncertain, are shown with a selection of clear calls. The call rests on the fitted dose curve; in most records, active means well fitted inhibition curve with a large enough effect; inconclusive means small, poorly fitted or top-dose-only effect; inactive means flat fitted curve, though single readings scatter. Potencies beside an inconclusive call are fits to weak or partial responses and may not hold up.

Test: qHTS for Inhibitors of human tyrosyl-DNA phosphodiesterase 1 (TDP1): qHTS in cells in presence of CPT; further: nearly all actives have a fitted effect of over 55% in size
Details: chicken DT40 Tdp1-/-;hTDP1 cells + 20 nM CPT, ATP luminescence, 48 h; activity change, negative = growth inhibition: at 46.2 µM (top of the series)
How it was run: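 Cell growth measured by CellTiter-Glo luminescence after a minimum 48 h, 37 C compound exposure with 20 nM CPT in Tdp1-knockout DT40 cells stably expressing hTDP1, seeded 400/well; qHTS titration format.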
On the % scale 0 is the no-effect control and ±100 the full control effect; potency means the concentration at half of the fitted maximal effect; tags describe the fitted curve by direction and shape.

SMILES | activity change, negative = growth inhibition | Potency
C=CCN1C(=O)C(CC(=O)Nc2ccc(C)cc2)SC1=Nc1c(C)n(C)n(-c2ccccc2)c1=O (centres undefined) | inactive: -5.86% | –
Cc1cc(CNC(=O)c2cccc([N+](=O)[O-])c2C)c2ccccc2n1 | – | active: 10.3 µM
O=C(NCc1ccc2[nH]c3c(c2c1)CCCC3)c1ccc(S(=O)(=O)N2CCOCC2)cc1 | inactive: -23.2% | –
O=C(NCc1ccccc1)C1=C[C@@H](c2ccc(C(F)(F)F)cc2)C[C@@H](OCCCCO)O1 | – | inconclusive: 20.6 µM [inhibitor, single point]
CC(=O)Nc1cccc(-c2csc(C(O)c3ccc(F)cc3)n2)c1 (centres undefined) | – | inconclusive: 16.4 µM [inhibitor, single point]
CN(C)c1cc(NC(=O)CNC(C)(C)CC(C)(C)C)c2ccccc2n1 | – | inconclusive: 18.4 µM [inhibitor, single point]
CC(C)(C)NC(=O)C1CCN(C(=O)c2ccc(-c3ccccc3)cc2)CC1 | – | inconclusive: 23.1 µM [inhibitor, single point]
COc1ccc(Cl)cc1S(=O)(=O)N1CCN(C(=O)c2cc(-c3ccc(Br)cc3)n[nH]2)CC1 | – | active: 11.6 µM
CC1CCN(C(=O)CC2C(=O)Nc3c2c(=O)n(C)c(=O)n3Cc2ccccc2)CC1 (centres undefined) | – | inconclusive: 18.4 µM [inhibitor, single point]
CCCC(=O)N(CCN(C(=O)CCC)c1ccccc1)c1ccccc1 | – | active: 11.6 µM
CCN(CC(=O)Nc1ccc(NC(C)=O)cc1)CC(=O)Nc1cc(C)on1 | inactive: -5.17% | –
COc1ccc(-n2nc(C(=O)NCC(=O)Nc3ccccn3)c3ccccc3c2=O)cc1Cl | – | inconclusive: 16.4 µM [inhibitor, single point]
Cc1cc2oc(=O)cc(CN3CCCCC3)c2cc1Cl | – | inconclusive: 11.6 µM [inhibitor, partial curve]
O=C(Nc1ccc(-c2cn3ccsc3n2)cc1)C1CC1 | – | inconclusive: 23.1 µM [inhibitor, single point]
CC(=O)[C@H]1CCC2C3CC=C4C[C@@H](O)CC[C@]4(C)C3CC[C@@]21C (some centres undefined) | – | active: 18.4 µM
O=C(CN1CCOc2ccccc21)NCc1ccccc1 | inactive: -5.19% | –
CCN1C(=O)[C@H]2[C@@H](c3ccc(C)cc3)N3C(=O)N(c4cccc(F)c4)C(=O)[C@@]3(CC)[C@H]2C1=O | inconclusive: -41.2% [inhibitor] | –
Cc1cc2c(cc1S(=O)(=O)N(C)Cc1ccccc1)OCC(=O)N2 | inactive: 6.51% | –
COCCn1c(SCC(=O)Nc2ccc(F)cc2)nc2c(oc3ccccc32)c1=O | inactive: 24.6% | –
Cc1cc(C)n(C2CC(=O)N(c3cccc(Cl)c3)C2=O)n1 (centres undefined) | – | active: 14.6 µM
Cc1ccc(C(=O)N[C@H](C(=O)OCc2cc(=O)n3c(n2)sc2ccccc23)C(C)C)cc1 | – | inconclusive: 20.6 µM [inhibitor, single point]
CC(=O)Nc1nonc1-c1nc2ccccc2n1Cc1ccccn1 | inactive: -7.68% | –
CC1=Nc2ccccc2N=C(NC(=O)c2ccccc2)C1c1ccc(Cl)cc1 (centres undefined) | – | inconclusive: 16.4 µM [inhibitor, single point]

SMILES | activity change, negative = growth inhibition | Potency
C=CCNC(=S)N/N=C/c1cn(C)c2ccccc12 | – | inconclusive: 29.1 µM [inhibitor, single point]
CCOC(=O)c1csc(NC(=O)CCSc2ccccc2)n1 | – | inconclusive: 13 µM [inhibitor, partial curve, poor fit]
COc1cc(NC(=O)C/C(C)=N/NC(=O)C(OC)c2ccccc2)c(OC)cc1Cl (centres undefined) | inactive: -4.75% | –
COc1ccc(NC(=O)c2cccc(N3C(=O)C4C5C=CC(C6CC56)C4C3=O)c2)cc1 (centres undefined) | – | inconclusive: 29.1 µM [inhibitor, single point]
COc1ccc(S(=O)(=O)N2CCN(C(=O)c3cc(-c4ccc(C)cc4)n[nH]3)CC2)cc1 | – | active: 25.9 µM
CCOc1ccccc1OCCCC(=O)ON=C(N)c1ccccc1 | inactive: 0.35% | –
CCOc1ccc(NC(=O)c2oc3ccccc3c2NC(=O)Cc2cccc(C)c2)cc1 | inactive: -28% | –
COC(=O)Nc1nc2ccc(S(=O)c3ccccc3)cc2[nH]1 (centres undefined) | – | inconclusive: 18.8 µM [inhibitor, single point] and inconclusive: 29.1 µM [inhibitor, single point]
CCC(=O)c1ccc(OC)c(OC)c1OCc1ccccc1 | inactive: -3.53% | –
COc1ccc2oc(C(=O)OCC(=O)N3CCN(S(=O)(=O)c4ccc(C)cc4)CC3)c(C)c2c1 | – | inconclusive: 20.6 µM [inhibitor, single point]
O=S(=O)(c1cccc(-c2cn3ccccc3n2)c1)N1CCCC1 | inactive: -20.9% | –
CC(=O)Oc1c2c(c3c(c1CC=C(C)C)O[C@@]14C(=CC5CC1C(C)(C)OC4(C/C=C(\C)C(=O)O)C5=O)C3=O)OC(C)(CCC=C(C)C)C=C2 (some centres undefined) | – | active: 2.91 µM
CN1CCN(CCC(=O)Nc2ccc(Cl)cc2)CC1 | inactive: 12% | –
COc1ccc(C(=O)Oc2ccc(C(c3c(C)[nH][nH]c3=O)c3c(C)[nH][nH]c3=O)cc2OC)cc1 | – | inconclusive: 29.1 µM [inhibitor, single point]
ON=C1/C(=N\O)CC2(C/C1=N/O)OCCO2 | – | inconclusive: 29.1 µM [inhibitor, single point]
CC(C)c1ccc(NC(=O)CCNS(=O)(=O)c2cccc3nsnc23)cc1 | – | inconclusive: 16.4 µM [inhibitor, single point]
COc1ccc(OC)c(S(=O)(=O)Nc2cccc(F)c2)c1 | inactive: -7.62% | –
CCN(CC(=O)Nc1cc(Cl)ccc1C)C(=O)CCS(=O)(=O)c1ccc(C)cc1 | inactive: -8.39% | –
COc1ccc(-n2nnnc2-c2ccc(S(C)(=O)=O)cc2Cl)cc1 | – | inconclusive: 18.4 µM [inhibitor, single point]
O=C(Cc1ccc(F)cc1)Nc1ccccc1Sc1ccccc1 | inconclusive: -30.2% [inhibitor] | –
Cc1ccc(NC(=O)Cn2c(=O)ccc3cc(S(=O)(=O)N4CCC(C)CC4)ccc32)cc1C | – | inconclusive: 23.1 µM [inhibitor, partial curve]
O=C(NNc1ccccn1)C(=O)NNS(=O)(=O)c1ccc(F)cc1 | inactive: -15.6% | –
C(=C\c1ccccc1)/CN1CCN(C(c2nnnn2-c2ccc3c(c2)OCCO3)C2CC2)CC1 (centres undefined) | – | active: 23.1 µM

SMILES | activity change, negative = growth inhibition | Potency
CCC1=C(OC(=O)N(CC)CC)N2C(=O)OC(=NCCc3c[nH]c4ccccc34)[C@]2(Cc2ccccc2)[C@H]2C1=CC[C@H]1C(=O)N(C)C(=O)[C@H]12 | – | inconclusive: 29.1 µM [inhibitor, single point]
COc1cccc(C(=O)N(Cc2nc(-c3ccc(C)cc3)no2)C(C)C)c1 | – | active: 18.4 µM
O=C1c2ccccc2C(=O)c2c(O)ccc(O)c21 | inactive: -5.73% [at 9.04 µM] | –
Cc1nc2ccccc2cc1C(=O)N/N=C/c1ccc([N+](=O)[O-])cc1 | – | inconclusive: 16.4 µM [inhibitor, single point]
O=C(COc1ccc(Cl)cc1)NCCc1csc(-c2cccc(F)c2)n1 | – | inconclusive: 20.6 µM [inhibitor, single point]
FC(F)(F)c1cc(CCN2CCNC[C@H]2Cc2cccc3ccccc23)cc(C(F)(F)F)c1 | – | active: 8.2 µM
O=C(O)c1ccc(N=Nc2c(O)ccc3ncccc23)cc1 | – | active: 4.11 µM
COC(=O)c1ccc(NC(=S)NCCc2ccc(OC)cc2)cc1 | – | inconclusive: 9.2 µM [inhibitor, partial curve, poor fit]
Cc1ccc(CNC(=S)Nc2cc(C(=O)O)ccc2C)cc1 | inactive: 4.95% | –
CCCCc1ccc(/C=C2\C(=O)ON=C2c2ccccc2)s1 | inactive: 4.02% | –
Cc1ccc(NC2=C(Cl)C(=O)OC2OC(=O)c2ccccc2C)cc1 (centres undefined) | – | inconclusive: 16.4 µM [inhibitor, single point]
CC(C)C(C(=O)N1CCN(Cc2ccccc2)CC1)c1ccccc1 (centres undefined) | inconclusive: -30.4% [inhibitor] | –
COc1cc(NC(=O)c2ncn(-c3ccccc3)n2)cc(OC)c1 | – | inconclusive: 29.1 µM [inhibitor, single point]
CCCCNC(=O)C1C(c2ccc(OC)cc2)=Nc2ccccc2N1C(=O)c1cccnc1 (centres undefined) | inconclusive: -30.1% [inhibitor] | –
COc1ccc(-c2nc3cnc(N4CCNCC4)nc3n(-c3ccc(OC)cc3)c2=O)cc1 | – | active: 18.4 µM
O=S(=O)(/N=C(/Nc1ccc(Cl)c(S(=O)(=O)N2CCOCC2)c1)c1ccc(F)cc1)c1ccccc1 | – | inconclusive: 29.1 µM [inhibitor, single point]
CC1=C(C(=O)Nc2ccccc2)C(c2cccc([N+](=O)[O-])c2)Nc2nc3ccccc3n21 (centres undefined) | – | inconclusive: 16.4 µM [inhibitor, single point]
CC(=O)OCc1cc(-c2nc3ccccc3[nH]c2=O)nn1-c1ccc(Cl)cc1 | – | inconclusive: 16.4 µM [inhibitor, single point]
CC(=O)c1ccc(NC(=O)CSc2nccn2Cc2ccc3c(c2)OCO3)cc1 | – | inconclusive: 18.4 µM [inhibitor, single point]
CN(CC(=O)Nc1cccc(F)c1)CC(=O)Nc1cccc(S(=O)(=O)N2CCCCC2)c1 | – | inconclusive: 29.1 µM [inhibitor, single point]
Cn1ncc(C(=O)N2CCN(c3ccccc3F)CC2)c1C1CCN(C(=O)OC(C)(C)C)CC1 | – | inconclusive: 16.4 µM [inhibitor, single point]
O=C1c2ccccc2C(=O)N1CCCCN(C(=O)c1cc([N+](=O)[O-])ccc1Cl)c1ccc(Cl)cc1 | – | inconclusive: 16.4 µM [inhibitor, single point]
CC(Oc1ccc2c3c(c(=O)oc2c1)CCCC3)C(=O)NCc1ccncc1 (centres undefined) | – | inconclusive: 29.1 µM [inhibitor, single point]
